Drawing on PubChem BioAssay AID463173 (ICCB-Longwood Screening Facility, Harvard Medical School, 2010), this text covers survival for 57 compounds.

Among all 52,000 compounds or so, about 1,700 (3.3%) were called active. No stated cut-off is given here; in the data, active means survival mostly below about 52% (no sharp cut-off); inactive means mostly above about 56%. This is one part of the list.

For the test, the system named is Wild type. As to the kind of experiment: growth inhibition of S. aureus wild type versus tarO mutant, primary screen, teichoic acid synthesis inhibitors, RN4220, OD600 (AID 463173). Conditions: S. aureus RN4220 wild type/DeltatarO growth, OD600, 18 h, active compounds read low, screened at 18.75 µg/mL (by protocol).
As to `O=C(Nc1ccccc1)c1cc2n(n1)C(C(F)(F)F)CC(c1ccco1)N2` (configuration not stated), the survival is inactive: 103%.
In the case of `N#Cc1c(/N=C/c2ccc3c(c2)OCO3)oc(-c2ccccc2)c1-c1ccccc1`, the survival was inactive: 115%.
`CCCC(=O)N1CCc2cc(OC)c(OC)cc2C1COc1ccc(C(=O)OC)cc1` (configuration not stated): the survival was inactive: 77%.
Turning to `C=CCn1c(N)nc2c1c(=O)n(C)c(=O)n2C`, the survival is inactive: 104%.
`CCC1Oc2ccccc2N(CC(=O)NCc2cc(OC)ccc2OC)C1=O` (configuration not stated): the survival is inactive: 87%.
In the case of `CCN(CC)C(=O)Cn1c(=O)n(CC2CCC(C(=O)NC)CC2)c(=O)c2sccc21` (configuration not stated), the survival was inactive: 118%.
On to `O=C(CSc1nc(-c2ccccc2F)nc2cc(=O)[nH]n12)Nc1cccc(C(F)(F)F)c1`, for which the survival was inactive: 69%.
The result for `CCOc1ccccc1-c1nc(Cn2c(=O)cc(C)c3c(C)nn(-c4ccccc4)c32)c(C)o1` reads inactive: 76%.
As for `Oc1ccc(Nc2ncnc3ccccc23)cc1`, the figure is inactive: 109%; as for `O=C(CSc1ncn(-c2ccccc2)n1)c1ccc(Cl)cc1`, inactive: 96%; as for `Cc1cc(C)cc(OCCCn2c(-c3ccc(Cl)cc3)nc3ccccc3c2=O)c1`, inactive: 63%.
As for `COc1ccc(C(CC(=O)NCc2ccc(Cl)cc2)N2Cc3ccccc3C2=O)cc1OC` (configuration not stated), the figure is inactive: 113%; as for `COC(=O)c1sc(-c2ccccc2)cc1NC(=O)Nc1ccc(F)cc1`, active: 13%.
On to `Cc1cc(C)cc(NC(=O)C2CCCN2S(=O)(=O)c2ccc3nc(-c4ccccc4)[nH]c3c2)c1` (configuration not stated), for which the survival was inactive: 45%.
As for `Cc1ccc(OCC(=O)Nc2ccc(S(=O)(=O)Nc3cc(C)on3)cc2)c(Br)c1`, the figure is inactive: 93%; as for `CCNC(=S)Nc1cc(-c2ccc(Cl)cc2)[nH]n1`, inactive: 111%; as for `COc1ccc2[nH]c(=O)c(CN(CCO)S(=O)(=O)c3ccc(Cl)c(C(F)(F)F)c3)cc2c1`, inactive: 119%.
As for `CCOC(=O)Cn1c(=O)oc2cc(S(=O)(=O)N3CCN(c4cccc(C)c4)C(C)C3)ccc21` (configuration not stated), the figure is inactive: 72%; as for `CC(=O)Nc1ccc2nc3c(=O)n(C)c(=O)n(C)c3nc2c1C`, inactive: 81%.
On to `COc1ccccc1CNC(=O)C(C)n1c(=O)cc(-c2ccccc2)c2c(C)nn(C)c21` (configuration not stated), for which the survival was inactive: 72%.
Consider `CC(C)c1nn2c(=O)cc(COC(=O)c3cccs3)nc2s1`, for which the survival was inactive: 70%.
The result for `Cc1[nH]n(-c2nc(-c3ccccc3)cs2)c(=O)c1N=Nc1ccc(O)cc1` reads inactive: 104%.
The result for `Cc1nc2cccnc2n1-c1cccc(C(=O)NCCN(C)C)c1` reads inactive: 64%; that for `CCSc1nsc(NC(=O)Nc2cccc(OC)c2)n1`, inactive: 95%.
As for `CCc1ccc(CNC(=O)c2cnc3sc(N4CCOCC4)nn3c2=O)cc1`, the figure is inactive: 74%; as for `N#Cc1nc(-c2ccc(COc3ccccc3)o2)oc1N1CCN(c2ccccc2)CC1`, inactive: 88%; as for `O=C1CCSC2(C(=O)N(Cc3ccc(F)cc3)c3ccccc32)N1c1ccc(Cl)cc1` (configuration not stated), inactive: 70%.
For `COc1ccc(Cl)cc1NC(=O)N1CCN(Cc2cc(=O)n3nc(-c4ccccc4)sc3n2)CC1`, the survival is inactive: 71%.
Consider `O=C(Nc1cccn(Cc2ccccc2)c1=O)NC1CCCCC1`, for which the survival is inactive: 121%.
As for `Cc1cccc(OC(=O)c2cc(-c3ccc(C)c(C)c3)on2)c1`, the figure is active: -7%; as for `CCOC(=O)c1cnn(-c2ccc(C(=O)Nc3ccc(C(C)=O)cc3)cc2)c1N`, inactive: 81%.
The result for `NC1=NC(c2cccc(Cl)c2)n2c(nc3ccccc32)N1` (configuration not stated) reads inactive: 97%.
In the case of `CCCS(=O)(=O)Nc1cccc(-c2cn3ccc(C)cc3n2)c1`, the survival was inactive: 81%.
The result for `CCOc1ccc2c(c1)c(=O)c(S(=O)(=O)c1ccc(F)cc1)cn2CC(=O)Nc1ccccc1C` reads inactive: 90%; that for `COCCN(Cc1ccco1)C(=O)c1cc2c(=O)[nH]c3ccc(C)cc3c2s1`, inactive: 76%.
With `CCOC(=O)c1c(S(=O)(=O)N2CCCC(C(=O)NCc3cccc(C)c3)C2)c(C)n(C)c1C` (configuration not stated), the survival was inactive: 77%.
Take `Cc1ccc(-c2csc(NC3OC(=O)c4c#cccc43)n2)cc1` (configuration not stated): the survival is inactive: 98%.
As for `COc1cc2cc(CNc3ccccc3)c(=O)n(CC(=O)Nc3ccc(C)c(Cl)c3)c2cc1OC`, the figure is inactive: 73%; as for `Cc1ccc(-c2noc(-c3ccc(N4CCN(C)CC4)c([N+](=O)[O-])c3)n2)cc1`, inactive: 85%; as for `O=C(COc1ccccc1)NCC(c1ccc(Cl)cc1)N1CCOCC1` (configuration not stated), inactive: 77%.
The result for `Cc1ccc(NC(=O)c2oc3ccc4c(c3c2C)C(=O)CC(C)(C)O4)c(C)c1` reads inactive: 87%; that for `CCCCNC(=O)C1CCN(Cc2cccc(OC)c2O)CC1`, inactive: 132%.
The result for `COc1ccc(C)cc1NS(=O)(=O)c1c(C(=O)N2CCC(C)CC2)c(C)n(C)c1C` reads inactive: 85%.
`COC(=O)c1ccc(NC(=O)CCCC(=O)OCC(=O)c2ccc(Cl)cc2)cc1`: the survival was inactive: 87%.
As for `CCCCNC(=O)c1c(N)no[n+]1[O-]`, the figure is inactive: 107%.
With `CCOc1c(Br)cc(C2CC(=O)Nc3cc4c(cc32)OCO4)cc1OC` (configuration not stated), the survival is inactive: 142%.
As for `O=C(CSc1n[nH]c(-c2ccc(F)cc2)n1)NCc1ccccc1Cl`, the figure is inactive: 80%; as for `COc1ccc(C2C=C(c3ccc(Cl)cc3)Nc3nc(-c4ccc(Cl)cc4)nn32)cc1` (configuration not stated), inactive: 88%.
For the compound `COc1ccc(CCNC(=O)c2cccc(Nc3nc4ccccc4nc3-n3nc(C)cc3C)c2)cc1OC`, the survival is inactive: 120%.
The result for `CC(=O)N1CCc2cc(Br)cc(S(=O)(=O)N3CCC(C(=O)Nc4ccc(C(C)C)cc4)CC3)c21` reads inactive: 137%; that for `COc1ccc(C(=O)CC2(O)C(=O)N(Cc3cccc(C(F)(F)F)c3)c3ccccc32)cc1` (configuration not stated), inactive: 32%; that for `Cn1ncc2c(N3CCN(c4ccccc4F)CC3)ncnc21`, inactive: 71%.
The result for `CCOc1ccc(/C=C/c2nc(C#N)c(NC(C)c3ccccc3)o2)cc1` (configuration not stated) reads inactive: 79%.
For the compound `COc1ccc(C)cc1NC(=O)Nc1cccc(OCc2cc(=O)n3ccc(C)cc3n2)c1`, the survival was inactive: 73%.
For the compound `Cc1ccccc1OCC(=O)NCC(c1ccc(Cl)cc1)N1CCCCC1` (configuration not stated), the survival is inactive: 78%.
On to `CCCCc1ccc(NC(=O)c2ccc3c(c2)CCN3S(=O)(=O)CC)cc1`, for which the survival is inactive: 80%.
In the case of `COc1cccc(C(=O)N2c3ncnn3C3(CCCCC3)[C@@H]3CCCC[C@@H]32)c1`, the survival is inactive: 81%.
